# According to the supplement of paper PMC8728848:
# This is one part of the list.
# B1: MpL2 (Macrolepiota procera) (protein)
# chain: MSTQVSSGQTYKITNVKAGTVIDLSGEDNKSIIGYPYHSGKNQQWTFNWTGKAWTLRSASSGSYLGIEGTPADGTRLVAVNDPFEWHIWRDEANENAFRIFVPFTNYNLRLSGYGDTTPGTPVQLWWTWEGLHQTWTIDRP
# How the values were obtained:
# Test in all cases: glycan array binding signal (z-score within array); higher = stronger binding
# Details in all cases: glycan notation: IUPAC condensed, linker removed; mutation: D109R
# [1] = molecular target: GlcNAc(a1-6)Gal(b1-4)GlcNAc
# Method in brief: (§1)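 Negative Z-scores can be read as non-binding. The Z-score is calculated within each array and then averaged across arrays of one protein sequence at different concentrations or buffers and across linkers. Arrays, 3228 in all, were curated from the Consortium for Functional Glycomics database and kept only where the protein sequence was available.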
# [2] = molecular target: GlcNAc(b1-2)Gal(b1-3)GalNAc
# Method in brief: as §1
# [3] = molecular target: GlcNAc(b1-2)Man(a1-3)[GlcNAc(b1-2)Man(a1-6)]Man(b1-4)GlcNAc(b1-4)GlcNAc
# Method in brief: as §1
# [4] = molecular target: GlcNAc(b1-2)Man(a1-3)[GlcNAc(b1-2)Man(a1-6)]Man(b1-4)GlcNAc(b1-4)[Fuc(a1-6)]GlcNAc
# Method in brief: as §1
# [5] = molecular target: GlcNAc(b1-2)Man(a1-3)[GlcNAc(b1-4)][GlcNAc(b1-2)Man(a1-6)]Man(b1-4)GlcNAc(b1-4)GlcNAc
# Method in brief: as §1
# [6] = molecular target: GlcNAc(b1-2)Man(a1-3)[GlcNAc(b1-4)][GlcNAc(b1-2)Man(a1-6)]Man(b1-4)GlcNAc(b1-4)[Fuc(a1-6)]GlcNAc
# Method in brief: as §1
# [7] = molecular target: GlcNAc(b1-2)[GlcNAc(b1-4)]Man(a1-3)[GlcNAc(b1-2)Man(a1-6)]Man(b1-4)GlcNAc(b1-4)GlcNAc
# Method in brief: as §1
# [8] = molecular target: GlcNAc(b1-2)[GlcNAc(b1-4)]Man(a1-3)[GlcNAc(b1-4)][GlcNAc(b1-2)Man(a1-6)]Man(b1-4)GlcNAc(b1-4)GlcNAc
# Method in brief: as §1
# [9] = molecular target: GlcNAc(b1-2)[GlcNAc(b1-4)]Man(a1-3)[GlcNAc(b1-4)][GlcNAc(b1-2)[GlcNAc(b1-6)]Man(a1-6)]Man(b1-4)GlcNAc(b1-4)GlcNAc
# Method in brief: as §1
# [10] = molecular target: GlcNAc(b1-2)[GlcNAc(b1-4)]Man(a1-3)[GlcNAc(b1-4)][GlcNAc(b1-2)[GlcNAc(b1-6)]Man(a1-6)]Man(b1-4)GlcNAc(b1-4)[Fuc(a1-6)]GlcNAc
# Method in brief: as §1
# [11] = molecular target: GlcNAc(b1-2)[GlcNAc(b1-6)]Man(a1-6)[GlcNAc(b1-2)Man(a1-3)]Man(b1-4)GlcNAc(b1-4)GlcNAc
# Method in brief: as §1
# [12] = molecular target: GlcNAc(b1-2)[GlcNAc(b1-6)]Man(a1-6)[GlcNAc(b1-2)Man(a1-3)]Man(b1-4)GlcNAc(b1-4)[Fuc(a1-6)]GlcNAc
# Method in brief: as §1
# [13] = molecular target: GlcNAc(b1-2)[GlcNAc(b1-6)]Man(a1-6)[GlcNAc(b1-4)][GlcNAc(b1-2)Man(a1-3)]Man(b1-4)GlcNAc(b1-4)GlcNAc
# Method in brief: as §1
# [14] = molecular target: GlcNAc(b1-3)Fuc
# Method in brief: as §1
# [15] = molecular target: GlcNAc(b1-3)Gal
# Method in brief: as §1
# [16] = molecular target: GlcNAc(b1-3)Gal(b1-3)GalNAc
# Method in brief: as §1
# [17] = molecular target: GlcNAc(b1-3)Gal(b1-4)Glc
# Method in brief: as §1
# [18] = molecular target: GlcNAc(b1-3)Gal(b1-4)GlcNAc
# Method in brief: as §1
# [19] = molecular target: GlcNAc(b1-3)Gal(b1-4)GlcNAc(b1-2)Man(a1-3)[GlcNAc(b1-3)Gal(b1-4)GlcNAc(b1-2)Man(a1-6)]Man(b1-4)GlcNAc(b1-4)GlcNAc
# Method in brief: as §1
# [20] = molecular target: GlcNAc(b1-3)Gal(b1-4)GlcNAc(b1-2)Man(a1-3)[GlcNAc(b1-3)Gal(b1-4)GlcNAc(b1-2)Man(a1-6)]Man(b1-4)GlcNAc(b1-4)[Fuc(a1-6)]GlcNAc
# Method in brief: as §1
# [21] = molecular target: GlcNAc(b1-3)Gal(b1-4)GlcNAc(b1-2)[GlcNAc(b1-3)Gal(b1-4)GlcNAc(b1-6)]Man(a1-6)[GlcNAc(b1-3)Gal(b1-4)GlcNAc(b1-2)Man(a1-3)]Man(b1-4)GlcNAc(b1-4)GlcNAc
# Method in brief: as §1
# [22] = molecular target: GlcNAc(b1-3)Gal(b1-4)GlcNAc(b1-3)Gal(b1-4)GlcNAc
# Method in brief: as §1
# [23] = molecular target: GlcNAc(b1-3)Gal(b1-4)GlcNAc(b1-3)Gal(b1-4)GlcNAc(b1-2)Man(a1-3)[GlcNAc(b1-3)Gal(b1-4)GlcNAc(b1-3)Gal(b1-4)GlcNAc(b1-2)Man(a1-6)]Man(b1-4)GlcNAc(b1-4)GlcNAc
# Method in brief: as §1
# [24] = molecular target: GlcNAc(b1-3)Gal(b1-4)GlcNAc(b1-3)Gal(b1-4)GlcNAc(b1-2)Man(a1-3)[GlcNAc(b1-3)Gal(b1-4)GlcNAc(b1-3)Gal(b1-4)GlcNAc(b1-2)Man(a1-6)]Man(b1-4)GlcNAc(b1-4)[Fuc(a1-6)]GlcNAc
# Method in brief: as §1
# [25] = molecular target: GlcNAc(b1-3)Gal(b1-4)GlcNAc(b1-3)Gal(b1-4)GlcNAc(b1-2)[GlcNAc(b1-3)Gal(b1-4)GlcNAc(b1-3)Gal(b1-4)GlcNAc(b1-6)]Man(a1-6)[GlcNAc(b1-3)Gal(b1-4)GlcNAc(b1-3)Gal(b1-4)GlcNAc(b1-2)Man(a1-3)]Man(b1-4)GlcNAc(b1-4)[Fuc(a1-6)]GlcNAc
# Method in brief: as §1
# [26] = molecular target: GlcNAc(b1-3)Gal(b1-4)GlcNAc(b1-3)Gal(b1-4)GlcNAc(b1-3)Gal(b1-4)GlcNAc(b1-2)Man(a1-3)[GlcNAc(b1-3)Gal(b1-4)GlcNAc(b1-3)Gal(b1-4)GlcNAc(b1-3)Gal(b1-4)GlcNAc(b1-2)Man(a1-6)]Man(b1-4)GlcNAc(b1-4)GlcNAc
# Method in brief: as §1
# [27] = molecular target: GlcNAc(b1-3)Gal(b1-4)GlcNAc(b1-3)Gal(b1-4)GlcNAc(b1-3)Gal(b1-4)GlcNAc(b1-2)Man(a1-3)[GlcNAc(b1-3)Gal(b1-4)GlcNAc(b1-3)Gal(b1-4)GlcNAc(b1-3)Gal(b1-4)GlcNAc(b1-2)Man(a1-6)]Man(b1-4)GlcNAc(b1-4)[Fuc(a1-6)]GlcNAc
# Method in brief: as §1
# [28] = molecular target: GlcNAc(b1-3)Gal(b1-4)GlcNAc(b1-3)Gal(b1-4)GlcNAc(b1-3)Gal(b1-4)GlcNAc(b1-2)[GlcNAc(b1-3)Gal(b1-4)GlcNAc(b1-3)Gal(b1-4)GlcNAc(b1-3)Gal(b1-4)GlcNAc(b1-6)]Man(a1-6)[GlcNAc(b1-3)Gal(b1-4)GlcNAc(b1-3)Gal(b1-4)GlcNAc(b1-3)Gal(b1-4)GlcNAc(b1-2)Man(a1-3)]Man(b1-4)GlcNAc(b1-4)[Fuc(a1-6)]GlcNAc
# Method in brief: as §1
# [29] = molecular target: GlcNAc(b1-3)Gal(b1-4)GlcNAc(b1-3)Gal(b1-4)GlcNAc(b1-3)Gal(b1-4)GlcNAc(b1-3)Gal(b1-4)GlcNAc(b1-2)Man(a1-3)[GlcNAc(b1-3)Gal(b1-4)GlcNAc(b1-3)Gal(b1-4)GlcNAc(b1-3)Gal(b1-4)GlcNAc(b1-3)Gal(b1-4)GlcNAc(b1-2)Man(a1-6)]Man(b1-4)GlcNAc(b1-4)GlcNAc
# Method in brief: as §1
# [30] = molecular target: GlcNAc(b1-3)Gal(b1-4)GlcNAc(b1-3)Gal(b1-4)GlcNAc(b1-3)Gal(b1-4)GlcNAc(b1-3)Gal(b1-4)GlcNAc(b1-2)Man(a1-3)[GlcNAc(b1-3)Gal(b1-4)GlcNAc(b1-3)Gal(b1-4)GlcNAc(b1-3)Gal(b1-4)GlcNAc(b1-3)Gal(b1-4)GlcNAc(b1-2)Man(a1-6)]Man(b1-4)GlcNAc(b1-4)[Fuc(a1-6)]GlcNAc
# Method in brief: as §1
# [31] = molecular target: GlcNAc(b1-3)Gal(b1-4)GlcNAc(b1-3)Gal(b1-4)GlcNAc(b1-3)Gal(b1-4)GlcNAc(b1-3)Gal(b1-4)GlcNAc(b1-2)[GlcNAc(b1-3)Gal(b1-4)GlcNAc(b1-3)Gal(b1-4)GlcNAc(b1-3)Gal(b1-4)GlcNAc(b1-3)Gal(b1-4)GlcNAc(b1-6)]Man(a1-6)[GlcNAc(b1-3)Gal(b1-4)GlcNAc(b1-3)Gal(b1-4)GlcNAc(b1-3)Gal(b1-4)GlcNAc(b1-3)Gal(b1-4)GlcNAc(b1-2)Man(a1-3)]Man(b1-4)GlcNAc(b1-4)[Fuc(a1-6)]GlcNAc
# Method in brief: as §1
# [32] = molecular target: GlcNAc(b1-3)Gal(b1-4)GlcNAc(b1-3)Gal(b1-4)GlcNAc(b1-3)GalNAc
# Method in brief: as §1
# [33] = molecular target: GlcNAc(b1-3)Gal(b1-4)GlcNAc(b1-3)GalNAc
# Method in brief: as §1
# [34] = molecular target: GlcNAc(b1-3)Gal(b1-4)GlcNAc(b1-3)[GlcNAc(b1-3)Gal(b1-4)GlcNAc(b1-3)]GalNAc
# Method in brief: as §1
# [35] = molecular target: GlcNAc(b1-3)Gal(b1-4)GlcNAc(b1-6)[Gal(b1-3)]GalNAc
# Method in brief: as §1
# [36] = molecular target: GlcNAc(b1-3)Gal(b1-4)GlcNAc(b1-6)[GlcNAc(b1-3)Gal(b1-3)]GalNAc
# Method in brief: as §1
# [37] = molecular target: GlcNAc(b1-3)Gal(b1-4)GlcNAc(b1-6)[GlcNAc(b1-3)]Gal(b1-4)GlcNAc
# Method in brief: as §1
# [38] = molecular target: GlcNAc(b1-3)GalNAc
# Method in brief: as §1
# [39] = molecular target: GlcNAc(b1-3)Man
# Method in brief: as §1
# [40] = molecular target: GlcNAc(b1-3)[GlcNAc(b1-4)][GlcNAc(b1-6)]GlcNAc
# Method in brief: as §1
# [41] = molecular target: GlcNAc(b1-3)[GlcNAc(b1-6)]Gal(b1-4)GlcNAc
# Method in brief: as §1
# [42] = molecular target: GlcNAc(b1-3)[GlcNAc(b1-6)]GalNAc
# Method in brief: as §1
# [43] = molecular target: GlcNAc(b1-4)Gal(b1-4)GlcNAc
# Method in brief: as §1
# [44] = molecular target: GlcNAc(b1-4)GlcNAc
# Method in brief: as §1
# [45] = molecular target: GlcNAc(b1-4)GlcNAc(b1-4)GlcNAc
# Method in brief: as §1
binder,measurement,setting,value
B1,glycan array binding signal (z-score),[1],6.07
same,glycan array binding signal (z-score),[2],-0.265
same,glycan array binding signal (z-score),[3],-0.258
same,glycan array binding signal (z-score),[4],-0.212
same,glycan array binding signal (z-score),[5],-0.259
same,glycan array binding signal (z-score),[6],-0.263
same,glycan array binding signal (z-score),[7],-0.263
same,glycan array binding signal (z-score),[8],-0.255
same,glycan array binding signal (z-score),[9],-0.26
same,glycan array binding signal (z-score),[10],-0.263
same,glycan array binding signal (z-score),[11],-0.259
same,glycan array binding signal (z-score),[12],-0.183
same,glycan array binding signal (z-score),[13],-0.27
same,glycan array binding signal (z-score),[14],-0.236
same,glycan array binding signal (z-score),[15],-0.271
same,glycan array binding signal (z-score),[16],-0.247
same,glycan array binding signal (z-score),[17],-0.238
same,glycan array binding signal (z-score),[18],-0.257
same,glycan array binding signal (z-score),[19],-0.223
same,glycan array binding signal (z-score),[20],-0.206
same,glycan array binding signal (z-score),[21],-0.184
same,glycan array binding signal (z-score),[22],-0.252
same,glycan array binding signal (z-score),[23],-0.109
same,glycan array binding signal (z-score),[24],-0.171
same,glycan array binding signal (z-score),[25],-0.214
same,glycan array binding signal (z-score),[26],-0.239
same,glycan array binding signal (z-score),[27],-0.184
same,glycan array binding signal (z-score),[28],-0.199
same,glycan array binding signal (z-score),[29],-0.233
same,glycan array binding signal (z-score),[30],-0.229
same,glycan array binding signal (z-score),[31],-0.197
same,glycan array binding signal (z-score),[32],-0.238
same,glycan array binding signal (z-score),[33],-0.238
same,glycan array binding signal (z-score),[34],-0.25
same,glycan array binding signal (z-score),[35],-0.258
same,glycan array binding signal (z-score),[36],-0.256
same,glycan array binding signal (z-score),[37],-0.269
same,glycan array binding signal (z-score),[38],-0.271
same,glycan array binding signal (z-score),[39],-0.258
same,glycan array binding signal (z-score),[40],-0.271
same,glycan array binding signal (z-score),[41],-0.252
same,glycan array binding signal (z-score),[42],-0.268
same,glycan array binding signal (z-score),[43],-0.208
same,glycan array binding signal (z-score),[44],-0.248
same,glycan array binding signal (z-score),[45],-0.248
